About 1,200 (2.5%) of roughly 48,000 compounds were called active. About 2% were inconclusive and are not listed.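 The calls were made as follows: active = activation of at least 60% and not above a set upper limit (about 1 call in 100 departs from these limits); inconclusive = activation of 40% to 60%, or above that upper limit; inactive = activation under 40%.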 The list shows a part of the results.
Target: Probable G-protein coupled receptor 32 (Homo sapiens) (UniProt O75388)
Assay: qHTS for Agonists of Human Resolvin D1 Receptor DRV1; also: 0% is about no effect
Settings: CHO-K1 GPR32 beta-arrestin PathHunter luminescence, 90 min; at 76.9 µM; hits give high values; zero percent set by DMSO-only wells
In short: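 GPR32 activation in stably transfected CHO-K1 cells, detected as beta-arrestin recruitment by enzyme-fragment complementation. Compound exposure: 90 min, 37 °C.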

Sequence of UniProt O75388 (O75388 whole entry, looked up): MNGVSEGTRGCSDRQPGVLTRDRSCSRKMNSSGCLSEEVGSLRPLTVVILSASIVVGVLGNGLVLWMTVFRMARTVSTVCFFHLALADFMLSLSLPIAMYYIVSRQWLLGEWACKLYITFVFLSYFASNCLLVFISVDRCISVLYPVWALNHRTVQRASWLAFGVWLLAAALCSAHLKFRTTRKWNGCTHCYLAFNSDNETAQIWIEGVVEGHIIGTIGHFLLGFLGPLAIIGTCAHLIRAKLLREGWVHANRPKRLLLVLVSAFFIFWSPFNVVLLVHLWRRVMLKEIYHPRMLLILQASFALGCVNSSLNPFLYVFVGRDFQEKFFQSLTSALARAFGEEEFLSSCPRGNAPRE

activation, inactive:
Cc1oc2ncn(CC(C)C)c(=O)c2c1C(=O)NCCCN1CCCCC1C (centres undefined) 7.09%
CCc1ccc2c(c1)c(=O)c(C(=O)c1ccc(C)cc1)cn2CC(=O)Nc1ccccc1C -10.3%
CCc1ccc2c(c1)c(=O)c(C(=O)c1ccccc1)cn2CC(=O)Nc1ccc(C)c(Cl)c1 4.8%
C#CC(N)CCC(=O)O (centres undefined) 0.435%
COc1ccc(-c2nnc(SCC(=O)NCCc3ccccc3)nc2-c2ccc(OC)cc2)cc1 -34.2%
Cc1cccc(C)c1OCC(=O)Nc1c(C(=O)c2ccccc2)oc2ccccc12 0.671%
CCc1ccccc1NC(=O)c1ncoc1-c1ccco1 -3.51%
COc1ccc(-c2c(C)nn3c(-c4ccccc4)cc(-c4ccccc4)nc23)cc1 5.12%
Cc1ccc(NC(=O)CSc2nc3nccnc3c(=O)n2CCc2c[nH]c3ccccc23)c(C)c1 -7.59%
COCCCNC(=O)c1ccc(Cn2c(=O)c3ccccc3n(CC(N)=O)c2=O)cc1 -1.64%
CCOC(=O)c1ccc(NC(=O)CSc2nc3ncc(Br)c(C)c3[nH]2)cc1 -6.68%
CC(=O)Oc1ccccc1C(=O)Nc1ncc([N+](=O)[O-])s1 -17.6%
CC(C)(C)C(=O)Nc1cc(-c2cccc(Br)c2)nn1-c1ccccc1 -0.567%
CCN(C(=O)c1ccc2c(c1)N(Cc1cccc(Cl)c1)C(=O)c1ccccc1S2=O)c1ccccc1 (centres undefined) -29.1%
COc1ccc(-c2cc3nc(N)cc(=O)n3[nH]2)cc1 2.46%
CCC(=O)N1c2ccccc2CC1C(=O)NCCCN1CCN(c2cc(C)ccc2C)CC1 (centres undefined) 3.56%
CC(C)c1ccc2oc(-c3ccc(Cl)c(NC(=O)c4cccs4)c3)nc2c1 -1.43%
O=C(NCCCc1nc2ccccc2n1Cc1ccc(F)cc1)C1CCCCC1 -4.59%
Cc1ccc(C)c(CSc2nc3c([nH]c4ccccc43)c(=O)n2C)c1 6.2%
COc1ccc(NC(=O)c2cc(S(=O)(=O)N3CCOCC3)cn2C)cc1Cl -0.365%
Cc1ccc(C(=O)Nc2ccc(F)cc2)cc1S(=O)(=O)N1CCCCCC1 -0.644%
Cc1cccc(C)c1OCc1cc(=O)n2c(-c3ccccc3)csc2n1 -1.02%
COc1cccc2c1cc1c(=O)n(CC(=O)N3CCN(c4ccccc4F)CC3)nc(C)n12 -5.24%
O=C1CS(=O)(=O)C2(C(=O)Nc3ccccc32)N1c1cccc(Cl)c1 (centres undefined) 0.999%
CCOc1ccc(NC(=O)CCCc2nc(-c3cccc(OC)c3)no2)cc1 -14.4%
Oc1cc(O)c2c(c1)O[C@H](c1ccc(O)c(O)c1)[C@@H](O)C2 -13.2%
Cc1ccc(CNC(=O)c2sc3nc(C)cc(C)c3c2-n2cccc2)cc1 27%
CCCCc1nn2c(=O)cc(COC(=O)c3cccc(NC(=O)COc4ccccc4)c3)nc2s1 -10.2%
Cc1ccc(C2=NN(CC(=O)NCCCN(CC(C)C)CC(C)C)C(=O)CC2)cc1 -3.64%
O=C(NC1CCCCCC1)C1CCN(C(=O)N2CCOc3ccc(Cl)cc32)CC1 2.6%
C[N+]1(C)CCC(OC(=O)C(c2ccccc2)c2ccccc2)CC1 -4.5%
Cc1cc(C)n(-c2nc3ccccc3nc2Nc2ccc(C(C)C)cc2)n1 -25.2%
CCOCCCNC(=O)c1ccc2c(c1)NC(=O)C(CS(=O)(=O)Cc1ccc(F)cc1Cl)N2 (centres undefined) -15.7%
Cc1cc2[nH]c(=O)c(=O)[nH]c2cc1S(=O)(=O)NCc1ccc(F)cc1 3.5%
Cc1cc(C)c(NC(=O)C(C)n2c(=O)cc(C)c3c(C)nn(-c4ccccc4)c32)c(C)c1 (centres undefined) -6.07%
CCOc1cccc(NC(=O)C2CC(=O)N(C)C(=Nc3cccc(OC)c3)S2)c1 (centres undefined) 27.8%
O=C(Nc1ccc(Cl)cc1Cl)c1cc(S(=O)(=O)N2CCC3(CC2)OCCO3)ccc1F -28.9%
O=C(NCc1cccc(F)c1)C1CCN(c2nc3ccccc3nc2C(F)(F)F)CC1 11%
CC(=O)N1CCc2c(sc3c2c(=O)n(-c2ccccc2)c(=O)n3CC(=O)c2ccc(Cl)cc2)C1 4.21%
COCCNC(=O)CCn1c(=O)c2cc(OC)c(OC)cc2n(CC(=O)Nc2ccc(F)c(Cl)c2)c1=O 4.1%
CC(=O)N1CCOc2cc(S(=O)(=O)NCc3ccccc3Cl)c(C)cc21 -9.1%
COc1ccccc1NC(=O)C(Cc1ccccc1)NS(=O)(=O)c1ccc2c(c1)CCN2C(C)=O (centres undefined) -3.94%
O=C(O)c1ccc(Nc2nc3ccccc3c3nncn23)cc1 11.4%
Cc1cc(C)c(NC(=O)Cn2c(=O)n(-c3cccc(C(F)(F)F)c3)c(=O)c3c(C)c(C)sc32)c(C)c1 15.6%
CCc1ccccc1Nc1nn2c(=O)c3ccc(C(=O)NCc4ccc(C)cc4)cc3nc2s1 -3.32%
Cc1cccc(OCC(=O)NCC2(N3CCN(C)CC3)CCCCC2)c1C -6.8%
COc1ccc(OCc2ccc(-c3nc(C#N)c(N4CCC(C)CC4)o3)o2)cc1 -24.5%
CCCNC(=O)C(=O)NCC(c1ccc2c(c1)OCO2)N1CCOCC1 (centres undefined) -12.9%
CCc1ccc(S(=O)(=O)c2nnn(-c3ccc(F)cc3)c2N)cc1 -1.74%
C=C(C)Cn1c(SCC(=O)Nc2cc(C)ccc2C)nc2sc3c(c2c1=O)CCCC3 -5.21%
COc1ccc(-c2ccnc3[nH]n(-c4ccccc4)c(=O)c23)cc1 18.7%
CCOC(=O)c1ccc(N2CCN(c3ccc(F)cc3)CC2)c(NC(=O)Nc2cccc(OC)c2)c1 -17.7%

activation, active:
Cn1nc(-c2ccc(OCC(=O)Nc3cccc(C(F)(F)F)c3)cc2)c2ccccc2c1=O 84.7%
Cc1ccc(NC(=O)c2ccc3snnc3c2)cc1Cl 95.1%

— PubChem BioAssay AID1346428 (National Center for Advancing Translational Sciences (NCATS), 2018)
